{
  "source": "PubChem BioAssay AID2147",
  "about": "(National Center for Advancing Translational Sciences (NCATS), 2009)",
  "note": "Hit rate of the full screen: of about 230,000 compounds, about 3,600 (1.6%) were called active. This list was built around the results that the source calls inconclusive (neither active nor inactive); the mix of calls is not that of the screen. Calls come from the whole dose curve; as a rule, active = well fitted inhibition curve with a large enough effect (not every such curve was filed as active); inconclusive = small, poorly fitted or top-dose-only effect, or another doubt; inactive = no such curve, though single readings can be large or run the other way. Potencies beside an inconclusive call are fits to weak or partial responses and may not hold up.",
  "data": [
    {"target": "Lysine-specific demethylase 4E (Homo sapiens) (UniProt B2RXH2)", "sequence (B2RXH2 whole entry, looked up, the tested form may be a part)": "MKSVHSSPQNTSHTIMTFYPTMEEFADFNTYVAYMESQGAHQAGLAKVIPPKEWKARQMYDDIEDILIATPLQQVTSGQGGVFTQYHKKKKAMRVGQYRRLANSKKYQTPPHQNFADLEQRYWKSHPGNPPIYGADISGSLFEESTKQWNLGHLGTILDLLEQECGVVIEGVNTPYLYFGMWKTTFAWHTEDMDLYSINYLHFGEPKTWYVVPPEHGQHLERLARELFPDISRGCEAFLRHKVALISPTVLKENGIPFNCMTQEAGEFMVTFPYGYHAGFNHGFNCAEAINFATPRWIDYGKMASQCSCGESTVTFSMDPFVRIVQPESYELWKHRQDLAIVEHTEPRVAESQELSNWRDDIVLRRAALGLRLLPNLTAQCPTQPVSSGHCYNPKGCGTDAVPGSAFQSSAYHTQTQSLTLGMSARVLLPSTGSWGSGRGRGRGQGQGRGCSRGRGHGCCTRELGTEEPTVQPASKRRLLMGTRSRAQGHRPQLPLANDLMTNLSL", "assay": "qHTS Assay for Inhibitors of Human Jumonji Domain Containing 2E (JMJD2E)", "details": "JMJD2E catalytic domain, FDH-coupled NADH fluorescence (FDH is formaldehyde dehydrogenase); series mostly up to 57.1 µM", "values": [
      {"compound": "O=C1c2cccnc2C(Nc2ccc(Cl)cc2)N1Cc1cccs1", "note": "(centres undefined); note: nearly all actives have a fitted effect of over 50% in size; note: potency is the fitted concentration of half-maximal effect; tags give direction and shape of the fitted curve", "Potency": "inactive"},
      {"compound": "O=C(O)C1CCCCC1C(=O)Nc1nccs1", "note": "(centres undefined)", "Potency": "inconclusive: 7.08 µM [inhibitor, single point]"},
      {"compound": "N=c1oc2c3c4c(cc2cc1C(=O)Nc1ccccc1)CCCN4CCC3", "Potency": "inactive"},
      {"compound": "COC(=O)CSc1nc2c(c(C3CC=CCC3)c1C#N)CCC2", "note": "(centres undefined)", "Potency": "inconclusive: 35.5 µM [inhibitor, single point]"},
      {"compound": "COc1ccc(/C=c2\\sc3nc(-c4ccccc4)c(-c4ccccc4)n3c2=O)cc1OC", "Potency": "inconclusive: 25.1 µM [inhibitor, single point]"},
      {"compound": "CCn1c2c(c3cc(C(=O)O)ccc31)CCCC2=O", "Potency": "inconclusive: 28.2 µM [inhibitor, partial curve]"},
      {"compound": "COc1ccc(C2=NO[C@@H]3[C@@H]4C[C@@H]([C@H]5C(=O)N(c6ccc7c(c6)OCO7)C(=O)[C@@H]45)[C@H]23)cc1OC", "Potency": "inconclusive: 39.8 µM [inhibitor, single point]"},
      {"compound": "Cc1ccc(S(=O)(=O)N2CCN(c3nc4ccccc4nc3-n3nc(C)cc3C)CC2)cc1", "Potency": "inconclusive: 31.6 µM [inhibitor, single point]"},
      {"compound": "O=C(COC(=O)Cc1cn2ccsc2n1)NC12CC3CC(CC(C3)C1)C2", "Potency": "inactive"},
      {"compound": "Cc1cc(Cl)ccc1OCCCC(=O)NCC1CCCO1", "note": "(centres undefined)", "Potency": "inactive"},
      {"compound": "COCCn1nnnc1C(c1cc2cccc(C)c2[nH]c1=O)N1CCN(c2ccccc2F)CC1", "note": "(centres undefined)", "Potency": "inconclusive: 31.6 µM [inhibitor, single point]"},
      {"compound": "COC(=O)c1ccccc1NC(=S)NC(NC(=O)COc1ccccc1)C(Cl)(Cl)Cl", "note": "(centres undefined)", "Potency": "inconclusive: 28.2 µM [inhibitor, single point]"},
      {"compound": "CCN(CC)S(=O)(=O)c1ccc(N2CCCCC2)c(NC(=O)/C=C/c2cc(OC)c(OC)c(OC)c2)c1", "Potency": "inconclusive: 25.1 µM [inhibitor, partial curve]"},
      {"compound": "CN(C)CCCNC(CC(=O)Nc1cccc([N+](=O)[O-])c1)C(=O)O", "note": "(centres undefined)", "Potency": "inactive"},
      {"compound": "COc1cc(/C=C/C(=O)N2CCN(c3n[nH]c(=O)[nH]c3=O)CC2)cc(OC)c1OC", "Potency": "inconclusive: 35.5 µM [inhibitor, partial curve]"},
      {"compound": "C/C(=N\\NC(=S)Nc1ccc(C(C)C)cc1)c1ccc2c(c1)OCO2", "Potency": "inconclusive: 39.8 µM [inhibitor, single point]"},
      {"compound": "O=C(Nc1ccc(N2CCOCC2)nc1N1CCOCC1)c1cccc(C(F)(F)F)c1", "Potency": "inconclusive: 39.8 µM [inhibitor, single point]"},
      {"compound": "O=C(CCCn1c(SCc2cc(=O)n3ccccc3n2)nc2ccccc2c1=O)NCC1CCCO1", "note": "(centres undefined)", "Potency": "inconclusive: 28.2 µM [inhibitor, single point]"},
      {"compound": "O=C1CS/C(=C/C(=O)c2cccc(Cl)c2)N1", "Potency": "inconclusive: 11.2 µM [inhibitor, partial curve]"},
      {"compound": "CCn1c(C)c(C)c2cc(C(=O)Nc3cccc(Cl)c3)ccc21", "Potency": "inconclusive: 31.6 µM [inhibitor, single point]"},
      {"compound": "O=C(O)c1ccccc1C(=O)c1ccc(N2CCOCC2)c([N+](=O)[O-])c1", "Potency": "inconclusive: 39.8 µM [inhibitor, single point]"},
      {"compound": "N#Cc1ccc(-c2cccs2)nc1SCc1cccnc1", "Potency": "inconclusive: 28.2 µM [inhibitor, partial curve]"},
      {"compound": "CCOC(=O)Nc1nnc(-c2cccc(OC)c2)s1", "Potency": "inconclusive: 31.6 µM [inhibitor, partial curve]"},
      {"compound": "CCN(CC)S(=O)(=O)c1ccc(N2CCOCC2)c(NC(=O)c2ccc(F)cc2)c1", "Potency": "inactive"},
      {"compound": "CCOc1cc(/C=N/NC(=O)c2nn(C)cc2Br)ccc1OCc1ccccc1", "Potency": "inconclusive: 31.6 µM [inhibitor, single point]"},
      {"compound": "CCCCOC(=O)Nc1ccc(N2CCCCC2)cc1", "Potency": "inactive"},
      {"compound": "O=C(c1ccco1)N1CCN(C(=O)c2cnn3c(C(F)(F)F)cc(-c4cccs4)nc23)CC1", "Potency": "inconclusive: 31.6 µM [inhibitor, partial curve]"},
      {"compound": "CCn1cc(/C=C(/C#N)S(=O)(=O)c2ccccc2)cn1", "Potency": "inconclusive: 31.6 µM [inhibitor, single point]"},
      {"compound": "Cc1ccc(S(=O)(=O)c2c(N)n(CCCO)c3nc4ccccc4nc23)cc1", "Potency": "inconclusive: 28.2 µM [inhibitor, partial curve]"},
      {"compound": "COCc1cc(=O)[nH]c2cc(NC(=O)C(C)(C)CCl)c(C)cc12", "Potency": "inconclusive: 25.1 µM [inhibitor, partial curve]"},
      {"compound": "CCCCc1cc(=O)oc2c(C)c(OCc3nn[nH]n3)ccc12", "Potency": "inconclusive: 17.8 µM [inhibitor, partial curve]"},
      {"compound": "Cc1ccc(-c2csc(=S)n2CC(=O)OCC(=O)NCc2ccco2)cc1", "Potency": "inactive"},
      {"compound": "CC(=O)c1cc(C#N)c(Oc2cc(C)cc(C)c2)nc1C", "Potency": "inactive"},
      {"compound": "COc1cc(C(CCN2CCCC2)c2c(OC)cc(OC)c3c(C)cc(=O)oc23)cc(OC)c1OC", "note": "(centres undefined)", "Potency": "inconclusive: 39.8 µM [inhibitor, single point]"},
      {"compound": "CC(/C=C/c1ccccc1)=N\\Nc1nc2c(c(=O)[nH]c(=O)n2C)n1CCO", "Potency": "inactive"},
      {"compound": "O=[N+]([O-])c1ccc(Cl)c(-c2ccc(/C=N/c3c(-c4ccco4)nc4ccccn34)o2)c1", "Potency": "inconclusive: 8.91 µM [inhibitor, single point]"},
      {"compound": "CCOC(=O)Cc1csc(NC(=O)c2sc3nc4ccc(CC)cc4cc3c2N)n1", "Potency": "inconclusive: 7.08 µM [inhibitor, single point]"},
      {"compound": "CS(=O)(=O)N1CCC(C(=O)O)CC1", "Potency": "inactive"},
      {"compound": "COC(=O)CSc1nnc2c3c4c(sc3nc(-n3nc(C)cc3C)n12)COC(C)(C)C4", "Potency": "inconclusive: 28.2 µM [inhibitor, single point]"},
      {"compound": "COCCn1c(=NC(=O)c2ccc(S(=O)(=O)N3CCc4ccccc4C3)cc2)sc2cc(OC)ccc21", "Potency": "inconclusive: 37.7 µM [inhibitor, single point]"},
      {"compound": "CCOC(=O)c1cc(-c2ccccc2)sc1NC(=O)CN1C(=O)NC(CC)(c2ccccc2)C1=O", "note": "(centres undefined)", "Potency": "inconclusive: 39.8 µM [inhibitor, single point]"},
      {"compound": "CCOC(=O)c1sc2nc3c(SCCC(=O)O)cc(C(=O)c4cc(OC)ccc4O)cn3c(=O)c2c1C", "Potency": "inconclusive: 22.4 µM [inhibitor, single point]"},
      {"compound": "Cc1ccc(-c2nc3cnccn3c2Nc2ccc3c(c2)OCCO3)o1", "Potency": "inactive"},
      {"compound": "O=C(CSc1nnc2ccccn12)Nc1ccccc1C(=O)NC1CC1", "Potency": "inconclusive: 28.2 µM [inhibitor, partial curve]"},
      {"compound": "Cn1nnnc1SCC(=O)Nc1nn(-c2ccccc2)nc1C(N)=O", "Potency": "inconclusive: 28.2 µM [inhibitor, partial curve]"},
      {"compound": "CCN1CCN(CC(=O)N2N=C(c3cccs3)CC2c2ccc(C)cc2)C(=O)C1=O", "note": "(centres undefined)", "Potency": "inconclusive: 35.5 µM [inhibitor, single point]"},
      {"compound": "O=C(NCCCN1CCCCC1)c1ccc2c(=O)n(CCc3ccccc3)c(=O)[nH]c2c1", "Potency": "inconclusive: 31.6 µM [inhibitor, single point]"},
      {"compound": "Cc1ccc(N(C)C(=O)C2CCCN2S(=O)(=O)c2ccc3c(c2)n(C)c(=O)c(=O)n3C)cc1", "note": "(centres undefined)", "Potency": "inconclusive: 28.2 µM [inhibitor, single point]"},
      {"compound": "CC(O)CN(Cc1cccc(Cl)c1)CC(C)O", "note": "(centres undefined)", "Potency": "inactive"},
      {"compound": "COc1ccc(NC(=O)c2cc(-c3ccccc3)oc2C)cc1", "Potency": "inactive"},
      {"compound": "c1ccc(CN2c3ccccc3-c3nc4ccccc4n3C2c2ccccn2)cc1", "note": "(centres undefined)", "Potency": "inconclusive: 31.6 µM [inhibitor, partial curve]"},
      {"compound": "CCc1nnc(NC(=O)CSc2n[nH]c(-c3ccccc3O)n2)s1", "Potency": "inconclusive: 31.6 µM [inhibitor, single point]"},
      {"compound": "CCN(CC)S(=O)(=O)c1cccc(NC(=S)NC(=O)/C=C/c2ccc(S(=O)(=O)N3CCOCC3)cc2)c1", "Potency": "inactive"},
      {"compound": "CC(=O)c1coc2c1cc(O)c1ccccc12", "Potency": "inactive"},
      {"compound": "CCCC(=O)Nc1ccc2c(c1)c1ccccc1n2CC", "Potency": "inconclusive: 28.2 µM [inhibitor, partial curve]"},
      {"compound": "O=C(c1cc2ccccc2oc1=O)N(Cc1ccc(F)cc1)C1CCS(=O)(=O)C1", "note": "(centres undefined)", "Potency": "inconclusive: 35.5 µM [inhibitor, single point]"},
      {"compound": "COC(=O)CCCSc1nccn1-c1ccccc1", "Potency": "inactive"},
      {"compound": "CCOC(=O)C(NC(=O)CC)(Nc1nc2c(s1)CCCC2)C(F)(F)F", "note": "(centres undefined)", "Potency": "inactive"},
      {"compound": "COc1cc2[nH]c(=O)n(CCCCCC(=O)NCCCN3CCOCC3)c(=O)c2cc1OC", "Potency": "inconclusive: 28.2 µM [inhibitor, partial curve]"},
      {"compound": "COc1cc(/C=C/C(=O)Nc2cc(S(=O)(=O)N3CCOCC3)ccc2N2CCCC2)cc(OC)c1OC", "Potency": "inactive"},
      {"compound": "Cc1cc(C(=O)NC(=S)Nc2ccccc2N2CCOCC2)ccc1[N+](=O)[O-]", "Potency": "inactive"},
      {"compound": "CC1=NN(C(N)=S)C(=O)C1N=Nc1ccc(O)cc1", "note": "(centres undefined)", "Potency": "inconclusive: 3.98 µM [inhibitor, partial curve, poor fit]"},
      {"compound": "CCCc1cc(=O)n2[nH]c(-c3ccc(C)cc3)cc2n1", "Potency": "inconclusive: 35.5 µM [inhibitor, single point]"},
      {"compound": "CC(C)(Oc1ccc(Cl)cc1)C(=O)Nc1ccc2oc(-c3ccncc3)nc2c1", "Potency": "inconclusive: 25.1 µM [inhibitor, partial curve]"},
      {"compound": "N#Cc1nc(Cc2cccc3ccccc23)oc1NCc1ccc(F)cc1", "Potency": "inactive"},
      {"compound": "C#CCOC(=O)C[N+](C)(C)CC#Cc1ccccc1", "Potency": "inactive"},
      {"compound": "O=C(COc1ccccc1[N+](=O)[O-])c1ccccc1", "Potency": "inactive"},
      {"compound": "CCC(=O)Nc1ccc2c(c1)C(=O)N(C)C2=O", "Potency": "inconclusive: 28.2 µM [inhibitor, partial curve]"},
      {"compound": "Nc1cccc(-c2nnc3n2CCCCC3)c1", "Potency": "inconclusive: 39.8 µM [inhibitor, single point]"}
    ]}
  ]
}
